Source: a compilation of properties of binary mixtures (doi:10.1016/j.jct.2012.02.027)
The densities may have been worked out from excess volumes.

Experiment: xn = mol fraction of the nth substance listed
Conditions: 101 kPa

## CCO + CC(=O)[O-].CC[n+]1ccn(C)c1
298.15 K, x1 = 1
  mass density: 785.1 kg/m3
313.15 K, x1 = 1
  mass density: 772 kg/m3
328.15 K, x1 = 1
  mass density: 758.6 kg/m3
343.15 K, x1 = 1
  mass density: 744.5 kg/m3

## O + CC(=O)[O-].CC[n+]1ccn(C)c1
328.15 K, x1 = 1
  mass density: 985.7 kg/m3
343.15 K, x1 = 1
  mass density: 977.8 kg/m3

## CC(=O)[O-].CC[n+]1ccn(C)c1 + CCO
298.15 K, x2 = 0
  mass density: 1097.8 kg/m3
298.15 K, x2 = 0.1059
  mass density: 1086.8 kg/m3
298.15 K, x2 = 0.1638
  mass density: 1079.7 kg/m3
298.15 K, x2 = 0.2471
  mass density: 1068.1 kg/m3
298.15 K, x2 = 0.3504
  mass density: 1051.2 kg/m3
298.15 K, x2 = 0.4165
  mass density: 1038.7 kg/m3
298.15 K, x2 = 0.4824
  mass density: 1024.9 kg/m3
298.15 K, x2 = 0.5572
  mass density: 1006.9 kg/m3
298.15 K, x2 = 0.6646
  mass density: 975.1 kg/m3
298.15 K, x2 = 0.7494
  mass density: 945.2 kg/m3
313.15 K, x2 = 0
  mass density: 1088.6 kg/m3
313.15 K, x2 = 0.1638
  mass density: 1070.3 kg/m3
313.15 K, x2 = 0.3504
  mass density: 1041.6 kg/m3
313.15 K, x2 = 0.4165
  mass density: 1029 kg/m3
313.15 K, x2 = 0.4824
  mass density: 1015.1 kg/m3
313.15 K, x2 = 0.6646
  mass density: 964.9 kg/m3
313.15 K, x2 = 0.8666
  mass density: 866.4 kg/m3
328.15 K, x2 = 0.1059
  mass density: 1068.4 kg/m3
328.15 K, x2 = 0.1638
  mass density: 1061.1 kg/m3
328.15 K, x2 = 0.2471
  mass density: 1049.4 kg/m3
328.15 K, x2 = 0.3504
  mass density: 1032.1 kg/m3
328.15 K, x2 = 0.4165
  mass density: 1019.5 kg/m3
328.15 K, x2 = 0.4824
  mass density: 1005.4 kg/m3
328.15 K, x2 = 0.5572
  mass density: 987 kg/m3
328.15 K, x2 = 0.6646
  mass density: 954.7 kg/m3
328.15 K, x2 = 0.7494
  mass density: 924.2 kg/m3
328.15 K, x2 = 0.8666
  mass density: 854.8 kg/m3
343.15 K, x2 = 0
  mass density: 1070.5 kg/m3
343.15 K, x2 = 0.1638
  mass density: 1052 kg/m3
343.15 K, x2 = 0.2471
  mass density: 1040.1 kg/m3
343.15 K, x2 = 0.4824
  mass density: 995.8 kg/m3
343.15 K, x2 = 0.5572
  mass density: 977.3 kg/m3
343.15 K, x2 = 0.6646
  mass density: 944.6 kg/m3
343.15 K, x2 = 0.7494
  mass density: 913.7 kg/m3
343.15 K, x2 = 0.8666
  mass density: 843.2 kg/m3

## CC[n+]1ccn(C)c1.N#C[N-]C#N + CCO
298.15 K, x2 = 0
  mass density: 1102 kg/m3
298.15 K, x2 = 0.102
  mass density: 1091.3 kg/m3
298.15 K, x2 = 0.1981
  mass density: 1079.7 kg/m3
298.15 K, x2 = 0.279
  mass density: 1069.3 kg/m3
298.15 K, x2 = 0.3596
  mass density: 1055.7 kg/m3
298.15 K, x2 = 0.4741
  mass density: 1033.9 kg/m3
298.15 K, x2 = 0.6867
  mass density: 975.2 kg/m3
298.15 K, x2 = 0.8503
  mass density: 901.4 kg/m3
298.15 K, x2 = 0.9327
  mass density: 846.4 kg/m3
313.15 K, x2 = 0.102
  mass density: 1081.3 kg/m3
313.15 K, x2 = 0.1981
  mass density: 1069.7 kg/m3
313.15 K, x2 = 0.279
  mass density: 1059.2 kg/m3
313.15 K, x2 = 0.4741
  mass density: 1023.7 kg/m3
313.15 K, x2 = 0.6028
  mass density: 991.4 kg/m3
313.15 K, x2 = 0.6867
  mass density: 964.5 kg/m3
313.15 K, x2 = 0.7678
  mass density: 931.9 kg/m3
313.15 K, x2 = 0.8503
  mass density: 890 kg/m3
313.15 K, x2 = 0.9327
  mass density: 834.2 kg/m3
328.15 K, x2 = 0.102
  mass density: 1071.6 kg/m3
328.15 K, x2 = 0.1981
  mass density: 1059.9 kg/m3
328.15 K, x2 = 0.279
  mass density: 1049.3 kg/m3
328.15 K, x2 = 0.4741
  mass density: 1013.6 kg/m3
328.15 K, x2 = 0.6028
  mass density: 981 kg/m3
328.15 K, x2 = 0.6867
  mass density: 953.9 kg/m3
328.15 K, x2 = 0.7678
  mass density: 920.9 kg/m3
328.15 K, x2 = 0.8503
  mass density: 878.5 kg/m3
328.15 K, x2 = 0.9327
  mass density: 822 kg/m3
343.15 K, x2 = 0
  mass density: 1072.8 kg/m3
343.15 K, x2 = 0.102
  mass density: 1061.9 kg/m3
343.15 K, x2 = 0.279
  mass density: 1039.6 kg/m3
343.15 K, x2 = 0.3596
  mass density: 1025.8 kg/m3
343.15 K, x2 = 0.4741
  mass density: 1003.6 kg/m3
343.15 K, x2 = 0.6028
  mass density: 970.7 kg/m3
343.15 K, x2 = 0.6867
  mass density: 943.3 kg/m3
343.15 K, x2 = 0.7678
  mass density: 909.9 kg/m3
343.15 K, x2 = 0.8503
  mass density: 866.9 kg/m3
343.15 K, x2 = 0.9327
  mass density: 809.4 kg/m3

## CCO + CC[n+]1ccn(C)c1.N#C[N-]C#N
298.15 K, x1 = 1
  mass density: 785.1 kg/m3
343.15 K, x1 = 1
  mass density: 744.5 kg/m3

## CC(=O)[O-].CC[n+]1ccn(C)c1 + O
298.15 K, x2 = 0.222
  mass density: 1099.6 kg/m3
298.15 K, x2 = 0.3233
  mass density: 1101.3 kg/m3
298.15 K, x2 = 0.6805
  mass density: 1105.9 kg/m3
298.15 K, x2 = 0.7482
  mass density: 1104 kg/m3
298.15 K, x2 = 0.8134
  mass density: 1097.9 kg/m3
298.15 K, x2 = 0.9067
  mass density: 1072.5 kg/m3
313.15 K, x2 = 0
  mass density: 1088.6 kg/m3
313.15 K, x2 = 0.0992
  mass density: 1089.2 kg/m3
313.15 K, x2 = 0.3233
  mass density: 1092.3 kg/m3
313.15 K, x2 = 0.4207
  mass density: 1094 kg/m3
313.15 K, x2 = 0.6135
  mass density: 1097.1 kg/m3
313.15 K, x2 = 0.6805
  mass density: 1096.1 kg/m3
313.15 K, x2 = 0.7482
  mass density: 1094 kg/m3
313.15 K, x2 = 0.8134
  mass density: 1087.7 kg/m3
313.15 K, x2 = 0.9067
  mass density: 1062.8 kg/m3
328.15 K, x2 = 0
  mass density: 1079.5 kg/m3
328.15 K, x2 = 0.222
  mass density: 1081.4 kg/m3
328.15 K, x2 = 0.3233
  mass density: 1083.2 kg/m3
328.15 K, x2 = 0.5408
  mass density: 1087.2 kg/m3
328.15 K, x2 = 0.6135
  mass density: 1087.6 kg/m3
328.15 K, x2 = 0.7482
  mass density: 1084 kg/m3
328.15 K, x2 = 0.9067
  mass density: 1052.9 kg/m3
343.15 K, x2 = 0
  mass density: 1070.5 kg/m3
343.15 K, x2 = 0.0992
  mass density: 1071.1 kg/m3
343.15 K, x2 = 0.3233
  mass density: 1074.2 kg/m3
343.15 K, x2 = 0.4207
  mass density: 1075.9 kg/m3
343.15 K, x2 = 0.6135
  mass density: 1078.2 kg/m3
343.15 K, x2 = 0.7482
  mass density: 1074.1 kg/m3
343.15 K, x2 = 0.8134
  mass density: 1067.1 kg/m3
343.15 K, x2 = 0.9067
  mass density: 1042.5 kg/m3

## CC[n+]1ccn(C)c1.N#C[N-]C#N + O
298.15 K, x2 = 0.1299
  mass density: 1099.7 kg/m3
298.15 K, x2 = 0.5429
  mass density: 1086.9 kg/m3
298.15 K, x2 = 0.6534
  mass density: 1081 kg/m3
298.15 K, x2 = 0.7355
  mass density: 1073.6 kg/m3
298.15 K, x2 = 0.953
  mass density: 1027.5 kg/m3
313.15 K, x2 = 0
  mass density: 1092.1 kg/m3
313.15 K, x2 = 0.1299
  mass density: 1089.8 kg/m3
313.15 K, x2 = 0.3042
  mass density: 1085.5 kg/m3
313.15 K, x2 = 0.4308
  mass density: 1081.5 kg/m3
313.15 K, x2 = 0.5429
  mass density: 1076.7 kg/m3
313.15 K, x2 = 0.6534
  mass density: 1070.7 kg/m3
313.15 K, x2 = 0.7355
  mass density: 1063.2 kg/m3
313.15 K, x2 = 0.7944
  mass density: 1056.3 kg/m3
328.15 K, x2 = 0
  mass density: 1082.4 kg/m3
328.15 K, x2 = 0.1299
  mass density: 1080 kg/m3
328.15 K, x2 = 0.2248
  mass density: 1077.8 kg/m3
328.15 K, x2 = 0.3042
  mass density: 1075.7 kg/m3
328.15 K, x2 = 0.4308
  mass density: 1071.5 kg/m3
328.15 K, x2 = 0.5429
  mass density: 1066.6 kg/m3
328.15 K, x2 = 0.6534
  mass density: 1060.4 kg/m3
328.15 K, x2 = 0.7355
  mass density: 1052.8 kg/m3
328.15 K, x2 = 0.8803
  mass density: 1031.2 kg/m3
328.15 K, x2 = 0.953
  mass density: 1009.9 kg/m3
343.15 K, x2 = 0.1299
  mass density: 1070.4 kg/m3
343.15 K, x2 = 0.2248
  mass density: 1068.1 kg/m3
343.15 K, x2 = 0.3042
  mass density: 1065.9 kg/m3
343.15 K, x2 = 0.4308
  mass density: 1061.7 kg/m3
343.15 K, x2 = 0.5429
  mass density: 1056.6 kg/m3
343.15 K, x2 = 0.6534
  mass density: 1050.2 kg/m3
343.15 K, x2 = 0.7355
  mass density: 1042.4 kg/m3
343.15 K, x2 = 0.7944
  mass density: 1035.4 kg/m3
343.15 K, x2 = 0.8803
  mass density: 1020.7 kg/m3
343.15 K, x2 = 0.953
  mass density: 1000.1 kg/m3
